Experimental data published in PubChem BioAssay AID2147 (National Center for Advancing Translational Sciences (NCATS), 2009).
Hit rate of the full screen: of about 230,000 compounds, about 3,600 (1.6%) were called active. The inconclusive results got no clear call from the source; some entries with a clear call stand among them for comparison. Calls follow the shape of the dose curve; as a rule, active = well fitted inhibition curve with a large enough effect (not every such curve was filed as active); inconclusive = small, poorly fitted or top-dose-only effect, or another doubt; inactive = no such curve, though single readings can be large or run the other way. Potencies beside an inconclusive call are fits to weak or partial responses and may not hold up.
Also: nearly all actives have a fitted effect of over 50% in size.
Potency is read from the fitted curve at half-maximal effect; tags tell the direction and shape of the fitted curve.

The compounds below were run against Lysine-specific demethylase 4E (Homo sapiens) (UniProt B2RXH2) (assay: qHTS Assay for Inhibitors of Human Jumonji Domain Containing 2E (JMJD2E)). Conditions: JMJD2E catalytic domain, FDH-coupled NADH fluorescence (FDH is formaldehyde dehydrogenase); series mostly up to 57.1 µM.
Sequence of UniProt B2RXH2 (B2RXH2 whole entry, looked up, the tested form may be a part): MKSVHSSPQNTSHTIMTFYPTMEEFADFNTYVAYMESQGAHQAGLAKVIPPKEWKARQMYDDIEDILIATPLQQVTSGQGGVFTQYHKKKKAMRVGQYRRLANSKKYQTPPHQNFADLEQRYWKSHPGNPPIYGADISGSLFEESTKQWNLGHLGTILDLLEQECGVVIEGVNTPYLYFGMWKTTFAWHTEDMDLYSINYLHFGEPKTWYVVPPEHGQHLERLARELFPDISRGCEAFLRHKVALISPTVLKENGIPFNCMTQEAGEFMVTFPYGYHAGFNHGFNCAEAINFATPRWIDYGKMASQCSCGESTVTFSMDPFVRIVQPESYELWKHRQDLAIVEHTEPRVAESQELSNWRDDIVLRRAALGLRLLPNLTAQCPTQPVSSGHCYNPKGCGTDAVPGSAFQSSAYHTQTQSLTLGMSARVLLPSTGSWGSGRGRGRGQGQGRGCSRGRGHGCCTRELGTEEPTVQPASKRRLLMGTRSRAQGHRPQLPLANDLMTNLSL
For `CCCc1cc(C(=O)Cc2ccc(C(=O)OCC)o2)c(O)cc1O`, the Potency was inconclusive: 28.2 µM [inhibitor, single point]. For `CCC(C)NC(=O)CCS(=O)(=O)c1ccc2c(c1)n(C)c(=O)c(=O)n2C` (centres undefined), the Potency was inconclusive: 28.2 µM [inhibitor, single point]. In the case of `COc1ccc(C(=O)Nc2ncc3c(n2)-c2ccccc2CC3)cc1`, the Potency is reported as inconclusive: 39.8 µM [inhibitor, single point]. For `COc1cc(C/C=C\c2ccccc2)c(OC)cc1O`, the Potency was inconclusive: 1.12 µM [inhibitor, partial curve]. With `Cc1cc(/C=C2\NC(=O)NC2=O)c(C)n1-c1cccnc1` the Potency was inconclusive: 20 µM [inhibitor, single point]. In the case of `CCCCn1nc2cc(C(=O)NC3CCCc4ccccc43)ccc2c1OCC` (centres undefined), the Potency is reported as inconclusive: 28.2 µM [inhibitor, partial curve]. In the case of `COc1ccc(C2CC(c3cccs3)=NN2c2ccccc2)cc1` (centres undefined), the Potency is reported as inconclusive: 2.51 µM [inhibitor, partial curve]. In the case of `COc1ccc(CC(=O)Nc2ccc(-c3cn4ccccc4n3)cc2)cc1`, the Potency is reported as inconclusive: 25.1 µM [inhibitor, partial curve]. `O=C(N/N=C/c1cc([N+](=O)[O-])ccc1O)c1cccc2cc[nH]c12` was tested, and the Potency was inconclusive: 35.5 µM [inhibitor, single point]. In the case of `COc1cccc2c1NC(C(=O)O)C1CC=CC21` (centres undefined), the Potency is reported as inconclusive: 39.8 µM [inhibitor, single point]. With `COc1ccc2c(c1OC)C(=O)OC2Nc1nc(-c2cccc([N+](=O)[O-])c2)cs1` (centres undefined) the Potency was inconclusive: 39.8 µM [inhibitor, single point]. For `CN1CCN(CCC(=O)Nc2ccc(F)c(F)c2)CC1`, the Potency was “inactive”. With `Cc1cc(C)c(NC(=O)COc2ccccc2C(=O)Nc2ccc3c(c2)oc2ccccc23)c(C)c1` the Potency was inconclusive: 1.41 µM [inhibitor, full curve]. `O=C(O)c1cnn(-c2nc(-c3cccc(F)c3)cs2)c1C(F)(F)F` was tested, and the Potency was inconclusive: 35.5 µM [inhibitor, partial curve]. `O=C(O)c1ccccc1Nc1cccc(C(F)(F)F)c1` was tested, and the Potency was “inactive”. With `Cn1ncc2c(Nc3ccc(Br)cc3)nc(Nc3ccc(Br)cc3)nc21` the Potency was inconclusive: 28.2 µM [inhibitor, partial curve]. With `COC(=O)NNS(=O)(=O)c1ccc(C)cc1` the Potency was “inactive”. With `COc1ccccc1N1CCN(C(=O)c2ccc(N3CCCC3=O)cc2)CC1` the Potency was inconclusive: 4.47 µM [inhibitor, single point]. With `COc1cc2c(cc1NC(=O)C(C)OC(=O)c1ccc(S(=O)(=O)Nc3ccccc3Cl)cc1)oc1ccccc12` (centres undefined) the Potency was inconclusive: 39.8 µM [inhibitor, single point]. With `Cc1cc(N=Nc2ccc(C)c(N=Nc3cc(C)c(N)cc3N)c2)c(N)cc1N` the Potency was inconclusive: 39.8 µM [inhibitor, single point]. With `CCCc1cc(=O)oc2c(CN3CCCC3)c(O)ccc12` the Potency was inconclusive: 0.631 µM [inhibitor, partial curve, poor fit]. `O=C(Cn1cncn1)NCc1ccc(Cl)cc1` was tested, and the Potency was “inactive”. In the case of `O=C(Cn1cnc2ccccc2c1=O)c1ccc2ccccc2c1`, the Potency is reported as inconclusive: 31.6 µM [inhibitor, partial curve]. In the case of `COc1ccc2[nH]cc(CCNS(=O)(=O)c3ccc(NC(C)=O)cc3)c2c1`, the Potency is reported as inconclusive: 25.1 µM [inhibitor, single point]. `CCCNS(=O)(=O)c1ccc(CCC(=O)NCCc2ccc(OC)c(OC)c2)cc1` was tested, and the Potency was “inactive”. With `COc1ccc(N(CC(=O)NCCSC2CCCCC2)S(C)(=O)=O)c(OC)c1` the Potency was “inactive”. For `COc1ccc(N(CC(=O)NCCSCc2ccco2)S(=O)(=O)c2ccccc2)cc1`, the Potency was “inactive”. For `CN1CC=C2C(C#N)=C(N)C(C#N)(C#N)C(CCc3ccccc3)C2C1` (centres undefined), the Potency was inconclusive: 25.1 µM [inhibitor, partial curve]. `COC(=O)c1ccccc1N/C=C1\CCc2c(c(C)nn2-c2ccccn2)C1=O` was tested, and the Potency was inconclusive: 25.1 µM [inhibitor, partial curve]. For `CC(C)CCNc1nc(-c2ccco2)c2c(c1C#N)CCCC2`, the Potency was inconclusive: 28.2 µM [inhibitor, partial curve]. In the case of `Oc1c(Cl)cc(Cl)cc1C=Nc1ccc(Br)cc1`, the Potency is reported as inconclusive: 25.1 µM [inhibitor, single point]. In the case of `Cc1cc(C)n2nc(C(=O)NCc3ccccc3)cc2n1`, the Potency is reported as inconclusive: 31.6 µM [inhibitor, partial curve]. `COc1cc2c(cc1NC(=O)c1cccc([N+](=O)[O-])c1)oc1ccccc12` was tested, and the Potency was “inactive”. For `O=C(/C=C/c1ccc2c(c1)OCO2)NCc1ccco1`, the Potency was inconclusive: 28.2 µM [inhibitor, partial curve]. `Cc1cc(=O)oc2cc(OCC(=O)NCC3CCCO3)ccc12` (centres undefined) was tested, and the Potency was inconclusive: 28.2 µM [inhibitor, partial curve]. `O=C1CC(NNc2ccccc2)C(=O)N1c1ccccc1` (centres undefined) was tested, and the Potency was “inactive”. In the case of `NC(=O)SCC(=O)Nc1ccc(Cl)c(Cl)c1`, the Potency is reported as “inactive”. With `Cc1ccc2c(c1)c(C)cc(=O)n2CCC(=O)O` the Potency was inconclusive: 25.1 µM [inhibitor, single point]. For `CCN(CC)C(=O)c1ccc(COc2ccccc2Cl)cc1`, the Potency was “inactive”. `Cc1ccc2oc(=O)c3cc(C(=O)NCCN4CCN(C)CC4)sc3c2c1` was tested, and the Potency was inconclusive: 14.1 µM [inhibitor, partial curve]. For `C/C(=N\NC(=O)c1c(Br)c(C)nn1C)c1ccc(NC(=O)c2ccoc2C)cc1`, the Potency was inconclusive: 35.5 µM [inhibitor, single point]. With `N#Cc1c2c(c(=S)n(-c3ccccc3)c1N)CCCC2` the Potency was inconclusive: 25.1 µM [inhibitor, single point]. `COC(=O)c1sc2nc(SCc3ccccc3C)n(N)c(=O)c2c1C` was tested, and the Potency was inconclusive: 3.16 µM [inhibitor, partial curve]. `Cc1c(C(=O)Nc2ccc(-n3cnnn3)cc2)oc2ccccc12` was tested, and the Potency was inconclusive: 39.8 µM [inhibitor, single point]. With `O=C(COc1ccc(/C=N/NC(=O)c2ccc(O)cc2)cc1)Nc1cccc([N+](=O)[O-])c1` the Potency was “inactive”. For `COc1ccc(C)cc1S(=O)(=O)N(C)CC(=O)Nc1ccccc1`, the Potency was “inactive”. With `COc1ccc(N2Cc3cccc(C(=O)NC(C)CCc4ccco4)c3C2=O)cc1` (centres undefined) the Potency was inconclusive: 28.2 µM [inhibitor, partial curve]. For `O=C(Cn1ccc2ccccc2c1=O)NCCC(=O)Nc1cccnc1`, the Potency was inconclusive: 39.8 µM [inhibitor, single point]. For `CC(C)CN1CCNC(=O)C1CC(=O)NCCCN1CCCc2ccccc21` (centres undefined), the Potency was inconclusive: 28.2 µM [inhibitor, partial curve]. With `CSc1ccccc1C(=O)C1CCCN(C(=O)CCc2cccnc2)C1` (centres undefined) the Potency was “inactive”. For `COc1ccc(OC)c(NC(=S)N2CCN(C/C=C/c3ccccc3)CC2)c1`, the Potency was inconclusive: 39.8 µM [inhibitor, single point]. `Cc1ccc2[nH]c(=O)c(-c3noc(CC(C)C)n3)cc2c1` was tested, and the Potency was inconclusive: 31.6 µM [inhibitor, partial curve]. In the case of `CCc1nc(Nc2ccc3c(c2)OCO3)c2oc3ccccc3c2n1`, the Potency is reported as inconclusive: 35.5 µM [inhibitor, single point]. In the case of `CC(=O)c1cc2c(cc1NC(=O)C1CCC1)OCO2`, the Potency is reported as inconclusive: 31.6 µM [inhibitor, partial curve]. `O=C(c1cccnc1)N1N=C2CCCCCC2C1(O)C(F)(F)F` (centres undefined) was tested, and the Potency was “inactive”. With `N#Cc1nc(COc2ccc(Br)cc2)oc1NCCCn1ccnc1` the Potency was “inactive”. In the case of `CCc1cc(=O)oc2cc(OCC(=O)N(CC)CC)c(Cl)cc12`, the Potency is reported as inconclusive: 31.6 µM [inhibitor, partial curve]. With `CC(C)(C)N(CC#CCC(O)(c1ccccc1)C1CCCC1)CCO` (centres undefined) the Potency was inconclusive: 20 µM [inhibitor, single point]. In the case of `COC(=O)c1[nH]c2ccc(C)cc2c1NC(=O)Nc1ccccc1OC`, the Potency is reported as inconclusive: 12.6 µM [inhibitor, partial curve]. `CCOC(=O)C1(CC)NC(c2ccc(N(C)C)cc2)C2C(=O)N(C)C(=O)C21` (centres undefined) was tested, and the Potency was inconclusive: 35.5 µM [inhibitor, single point]. With `Cc1cc(=O)oc2c(C)c(OCC(=O)N(C)C)ccc12` the Potency was inconclusive: 25.1 µM [inhibitor, partial curve]. For `COc1ccc(C(CCN2CCN(c3ccccc3)CC2)c2c(OC)cc(OC)c3c(-c4ccccc4)cc(=O)oc23)cc1` (centres undefined), the Potency was inconclusive: 25.1 µM [inhibitor, single point]. With `CCN1C(=O)c2cccc3c(S(=O)(=O)N(C(=O)c4cccnc4)c4ccc(OC)cc4)ccc1c23` the Potency was inconclusive: 22.4 µM [inhibitor, partial curve]. With `CN(C)CCN1C(=O)C(O)=C(C(=O)c2cc3ccccc3o2)C1c1ccccn1` (centres undefined) the Potency was inconclusive: 28.2 µM [inhibitor, single point]. With `Clc1ccc(C(c2ccccc2Cl)C(Cl)Cl)cc1` (centres undefined) the Potency was inconclusive: 39.8 µM [inhibitor, single point]. For `Cc1ccc(C(=O)c2coc3c2C(=O)C(=O)c2ccccc2-3)cc1`, the Potency was inconclusive: 3.55 µM [inhibitor, partial curve]. In the case of `O=C(Nc1ccc(-c2nc3cccnc3s2)cc1)c1ccc(Br)o1`, the Potency is reported as inconclusive: 31.6 µM [inhibitor, partial curve]. In the case of `CCCNC(=O)COC(=O)c1cc2c(=O)n3ccccc3nc2s1`, the Potency is reported as inconclusive: 3.55 µM [inhibitor, partial curve]. In the case of `COc1cccc(-c2nnc(NC(=O)c3cccc(F)c3)o2)c1`, the Potency is reported as inconclusive: 39.8 µM [inhibitor, single point]. `CCOC(=O)C(C(=O)Nc1ccc(C)cc1)C1CCCCC1` (centres undefined) was tested, and the Potency was “inactive”. In the case of `Cc1ccc(NC(=O)Nc2cc(S(C)(=O)=O)ccc2Cl)cc1`, the Potency is reported as “inactive”. In the case of `CC(=O)OCC(=O)N1N=C(c2ccc3ccccc3c2)CC1c1ccccc1` (centres undefined), the Potency is reported as inconclusive: 28.2 µM [inhibitor, partial curve]. `O=c1[nH]c(CSc2nnc(COc3ccccc3)n2-c2ccccc2)nc2ccccc12` was tested, and the Potency was “inactive”. `Cc1ccc(-n2c(-c3ccco3)nc3nc4ccccc4nc32)cc1` was tested, and the Potency was inconclusive: 3.16 µM [inhibitor, partial curve]. In the case of `Cc1oc(S(=O)(=O)N2CCCCC2)cc1NC(=O)Nc1ccc(Cl)cc1`, the Potency is reported as inconclusive: 31.6 µM [inhibitor, partial curve]. With `O=C(CNC1=NCCC1)c1ccc(Cl)cc1` the Potency was “inactive”. In the case of `O=C(N/N=C\C=C\c1ccc2c(c1)OCO2)C1COc2ccccc2O1` (centres undefined), the Potency is reported as inconclusive: 28.2 µM [inhibitor, partial curve]. `CCOC(=O)c1cc2occc2n1CCCN1C(=O)c2ccccc2C1=O` was tested, and the Potency was “inactive”. For `O=C(CSc1nc2ccccc2c(=O)[nH]1)c1ccccc1`, the Potency was “inactive”.
